The other results are listed elsewhere or left out.
Legend:
Test in all cases: glycan array binding signal (z-score within array); higher = stronger binding
Settings in all cases: glycan notation: IUPAC condensed, linker removed
Fuc(a1-2)Gal = molecular target: Fuc(a1-2)Gal
Method in brief: (§1)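 The binding signal is a Z-score computed within each array and averaged over linkers. Arrays of the same protein sequence at different concentrations or buffers were also averaged together. Data originate from 3228 arrays in the Consortium for Functional Glycomics database, kept only where the protein sequence was available.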

Fuc(a1-2)Gal(b1-3)GalNAc = molecular target: Fuc(a1-2)Gal(b1-3)GalNAc
Method in brief: as §1

[1] = molecular target: Fuc(a1-2)Gal(b1-3)GalNAc(a1-3)[Fuc(a1-2)]Gal(b1-4)Glc
Method in brief: as §1

[2] = molecular target: Fuc(a1-2)Gal(b1-3)GalNAc(a1-3)[Fuc(a1-2)]Gal(b1-4)GlcNAc
Method in brief: as §1

[3] = molecular target: Fuc(a1-2)Gal(b1-3)GalNAc(b1-3)Gal
Method in brief: as §1

[4] = molecular target: Fuc(a1-2)Gal(b1-3)GalNAc(b1-3)Gal(a1-4)Gal(b1-4)Glc
Method in brief: as §1

[5] = molecular target: Fuc(a1-2)Gal(b1-3)GalNAc(b1-4)[Neu5Ac(a2-3)]Gal(b1-4)Glc
Method in brief: as §1

Fuc(a1-2)Gal(b1-3)GlcNAc = molecular target: Fuc(a1-2)Gal(b1-3)GlcNAc
Method in brief: as §1

[6] = molecular target: Fuc(a1-2)Gal(b1-3)GlcNAc(b1-2)Man(a1-3)[Fuc(a1-2)Gal(b1-3)GlcNAc(b1-2)Man(a1-6)]Man(b1-4)GlcNAc(b1-4)GlcNAc
Method in brief: as §1

[7] = molecular target: Fuc(a1-2)Gal(b1-3)GlcNAc(b1-2)Man(a1-3)[Fuc(a1-2)Gal(b1-3)GlcNAc(b1-2)Man(a1-6)]Man(b1-4)GlcNAc(b1-4)[Fuc(a1-6)]GlcNAc
Method in brief: as §1

[8] = molecular target: Fuc(a1-2)Gal(b1-3)GlcNAc(b1-3)Gal(b1-4)Glc
Method in brief: as §1

[9] = molecular target: Fuc(a1-2)Gal(b1-3)GlcNAc(b1-3)GalNAc
Method in brief: as §1

[10] = molecular target: Fuc(a1-2)Gal(b1-3)GlcNAc(b1-3)[Fuc(a1-3)[Gal(b1-4)]GlcNAc(b1-6)]Gal(b1-4)Glc
Method in brief: as §1

[11] = molecular target: Fuc(a1-2)Gal(b1-3)GlcNAc(b1-3)[Gal(b1-4)GlcNAc(b1-6)]Gal(b1-4)Glc
Method in brief: as §1

[12] = molecular target: Fuc(a1-2)Gal(b1-3)[Fuc(a1-4)]GlcNAc
Method in brief: as §1

[13] = molecular target: Fuc(a1-2)Gal(b1-3)[Fuc(a1-4)]GlcNAc(b1-2)Man(a1-3)[Fuc(a1-2)Gal(b1-3)[Fuc(a1-4)]GlcNAc(b1-2)Man(a1-6)]Man(b1-4)GlcNAc(b1-4)GlcNAc
Method in brief: as §1

[14] = molecular target: Fuc(a1-2)Gal(b1-3)[Fuc(a1-4)]GlcNAc(b1-3)[Fuc(a1-3)[Gal(b1-4)]GlcNAc(b1-6)]Gal(b1-4)Glc
Method in brief: as §1

[15] = molecular target: Fuc(a1-2)Gal(b1-3)[Fuc(a1-4)]GlcNAc(b1-3)[Gal(b1-4)GlcNAc(b1-6)]Gal(b1-4)Glc
Method in brief: as §1

Fuc(a1-2)Gal(b1-4)Glc = molecular target: Fuc(a1-2)Gal(b1-4)Glc
Method in brief: as §1

Fuc(a1-2)Gal(b1-4)Glc6S = molecular target: Fuc(a1-2)Gal(b1-4)Glc6S
Method in brief: as §1

Fuc(a1-2)Gal(b1-4)GlcNAc = molecular target: Fuc(a1-2)Gal(b1-4)GlcNAc
Method in brief: as §1

[16] = molecular target: Fuc(a1-2)Gal(b1-4)GlcNAc(b1-2)Man(a1-3)[Fuc(a1-2)Gal(b1-4)GlcNAc(b1-2)Man(a1-6)]Man(b1-4)GlcNAc(b1-4)GlcNAc
Method in brief: as §1

[17] = molecular target: Fuc(a1-2)Gal(b1-4)GlcNAc(b1-2)Man(a1-3)[Fuc(a1-2)Gal(b1-4)GlcNAc(b1-2)Man(a1-6)]Man(b1-4)GlcNAc(b1-4)[Fuc(a1-6)]GlcNAc
Method in brief: as §1

[18] = molecular target: Fuc(a1-2)Gal(b1-4)GlcNAc(b1-2)[Fuc(a1-2)Gal(b1-4)GlcNAc(b1-4)]Man(a1-3)[Fuc(a1-2)Gal(b1-4)GlcNAc(b1-2)Man(a1-6)]Man(b1-4)GlcNAc(b1-4)GlcNAc
Method in brief: as §1

[19] = molecular target: Fuc(a1-2)Gal(b1-4)GlcNAc(b1-3)Gal(b1-4)GlcNAc
Method in brief: as §1

[20] = molecular target: Fuc(a1-2)Gal(b1-4)GlcNAc(b1-3)Gal(b1-4)GlcNAc(b1-3)Gal(b1-4)GlcNAc
Method in brief: as §1

[21] = molecular target: Fuc(a1-2)Gal(b1-4)GlcNAc(b1-3)GalNAc
Method in brief: as §1

[22] = molecular target: Fuc(a1-2)Gal(b1-4)GlcNAc6S
Method in brief: as §1

[23] = molecular target: Fuc(a1-2)Gal(b1-4)[Fuc(a1-3)]GlcNAc
Method in brief: as §1

[24] = molecular target: Fuc(a1-2)Gal(b1-4)[Fuc(a1-3)]GlcNAc(b1-2)Man(a1-3)[Fuc(a1-2)Gal(b1-4)[Fuc(a1-3)]GlcNAc(b1-2)Man(a1-6)]Man(b1-4)GlcNAc(b1-4)GlcNAc
Method in brief: as §1

B1: Gal 7 (Canis lupus) (protein)
chain: MAGSSNVPHKTSLPEGIRVGTVMRIRGVVPNKAGRFYVNLLCGEAPGSEAALHFNPRLDESTVVFNTLEQGAWGREERGTGIPFQRGQPFDVLLIATDEGFKAVVGDSEYHHFRYRIPPARVRLLEVGGDLQLESVSVF
**Q.** With B1 as the binder, how does the “glycan array binding signal (z-score)” value (Fuc(a1-2)Gal) read?
**A.** -0.198

**Q.** And the “glycan array binding signal (z-score)” value (Fuc(a1-2)Gal(b1-3)GalNAc)?
**A.** -0.206

**Q.** And the “glycan array binding signal (z-score)” value [1]?
**A.** -0.206

**Q.** What about the “glycan array binding signal (z-score)” value [2] of the same binder?
**A.** -0.132

**Q.** And the “glycan array binding signal (z-score)” value [3]?
**A.** -0.209

**Q.** And the “glycan array binding signal (z-score)” value [4]?
**A.** -0.208

**Q.** What about the “glycan array binding signal (z-score)” value [5] of the same binder?
**A.** -0.216

**Q.** And the “glycan array binding signal (z-score)” value (Fuc(a1-2)Gal(b1-3)GlcNAc)?
**A.** -0.122

**Q.** What about the “glycan array binding signal (z-score)” value [6] of the same binder?
**A.** -0.044

**Q.** What about the “glycan array binding signal (z-score)” value [7] of the same binder?
**A.** -0.169

**Q.** And the “glycan array binding signal (z-score)” value [8]?
**A.** 0.464

**Q.** And the “glycan array binding signal (z-score)” value [9]?
**A.** -0.187

**Q.** What about the “glycan array binding signal (z-score)” value [10] of the same binder?
**A.** 0.086

**Q.** And the “glycan array binding signal (z-score)” value [11]?
**A.** 0.296

**Q.** What about the “glycan array binding signal (z-score)” value [12] of the same binder?
**A.** -0.207

**Q.** And the “glycan array binding signal (z-score)” value [13]?
**A.** -0.205

**Q.** What about the “glycan array binding signal (z-score)” value [14] of the same binder?
**A.** -0.21

**Q.** What about the “glycan array binding signal (z-score)” value [15] of the same binder?
**A.** -0.135

**Q.** And the “glycan array binding signal (z-score)” value (Fuc(a1-2)Gal(b1-4)Glc)?
**A.** -0.208

**Q.** And the “glycan array binding signal (z-score)” value (Fuc(a1-2)Gal(b1-4)Glc6S)?
**A.** -0.194

**Q.** And the “glycan array binding signal (z-score)” value (Fuc(a1-2)Gal(b1-4)GlcNAc)?
**A.** -0.192

**Q.** And the “glycan array binding signal (z-score)” value [16]?
**A.** -0.071

**Q.** What about the “glycan array binding signal (z-score)” value [17] of the same binder?
**A.** -0.187

**Q.** And the “glycan array binding signal (z-score)” value [18]?
**A.** -0.16

**Q.** What about the “glycan array binding signal (z-score)” value [19] of the same binder?
**A.** 9.85

**Q.** And the “glycan array binding signal (z-score)” value [20]?
**A.** 8.28

**Q.** What about the “glycan array binding signal (z-score)” value [21] of the same binder?
**A.** -0.117

**Q.** And the “glycan array binding signal (z-score)” value [22]?
**A.** -0.199

**Q.** And the “glycan array binding signal (z-score)” value [23]?
**A.** -0.205

**Q.** What about the “glycan array binding signal (z-score)” value [24] of the same binder?
**A.** -0.182

Reference: the supplement of paper PMC8728848
